# Data from the RNAGym collection of RNA variant scans (doi:10.1073/pnas.2313332121).
# Variants at the background level are over-represented here.
# B1: TPR 5TU (parent)
# chain: GGAUCUUCUCGAUCUAACAAAAAAGACAAAUCUGCCACAAAGCUUGAGAGCAUCUUCGGAUGCAGAGGCGGCAGCCUUCGGUGGCGCGAUAGCGCCAACGUUCUCAACUAUGACACGCAAAACGCGUGCUCCGUUGAAUGGAGUUUAUCAUG
# Variants of: B1
# Assay: polymerase ribozyme fitness, log enrichment relative to wild type (log ratio); higher = more active; in vitro selection for triplet polymerase activity
# In short: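 To select mutant libraries of each subunit of a heterodimeric triplet polymerase ribozyme, built by PCR and transcribed, each was annealed with a biotinylated primer, partner subunit and triplets, then incubated frozen at −7 °C. Extended constructs were gel-excised, captured on streptavidin beads and amplified by RT-PCR, in one round carried out in triplicate. Illumina sequencing of input and output libraries kept genotypes with ≥10 input reads and ≥1 read per output. Fitness is the base-2 logarithm of genotype enrichment relative to wild-type enrichment, from inverse-variance-weighted replicate averages.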
row,Variant,polymerase ribozyme fitness (log ratio)
1,C8A U33A A37U C93U C105A G143A,≤ -4.2
2,C8A U33G A41U A49C G50C C51A C54A G71C C93A G124U G140C,≤ -4.2
3,C8A U53A C85U A98G C114A C125G,≤ -4.2
4,C8A U53G A89U A91U C93G C105U G143U U146A G152A,≤ -4.2
5,C8A U55A C72G G81U C85U A115U,≤ -4.2
6,C8A U55A C79U G84A C108G G124A,≤ -4.2
7,C8A U55G C87U,≤ -4.2
8,C8G A12G A22G U33A G48A A89U,≤ -4.2
9,C8G A12G A29U C36A U44A G68U,≤ -4.2
10,C8G A12G C35U C75A G86U U109G U127G A137G,≤ -4.2
11,C8G A16C A21U U44A G94C A107G G140U G143C U145G,≤ -4.2
12,C8G A16C G25U A37C G59C A64U C87A G92C,≤ -4.2
13,C8G A16U G50U U53A C54U C87A A115U C116G,≤ -4.2
14,C8G A17G U55A G112A G141C,≤ -4.2
15,C8G A17G U61A C87G A119G,≤ -4.2
16,C8G A17U A40U C93G C96A A97G G126A,≤ -4.2
17,C8G A17U G25C C87G C105A A106U,≤ -4.2
18,C8G A20C C32U A40G G65C G83A U101C,≤ -4.2
19,C8G A20G A28U G50A C72A A73C,≤ -4.2
20,C8G A20U A24C A40G C76A C132G,≤ -4.2
21,C8G A20U G50C C79A G84A A98C,≤ -4.2
22,C8G A20U U45A G81C G92U G100C,≤ -4.2
23,C8G A21C,-3.31
24,C8G A21C G74U G84A U135A,≤ -4.2

row,Variant,polymerase ribozyme fitness (log ratio)
1,C8G A21G A28U U77C C79U A122C G152U,≤ -4.2
2,C8G A21G C93U C103U,≤ -4.2
3,C8G A21G G83C,≤ -4.2
4,C8G A21U G65C A66C A119U,≤ -4.2
5,C8G A22C C69A G81U G84U,≤ -4.2
6,C8G A22U A24C A41C G80C C87A G100U G141C,≤ -4.2
7,C8G A22U A26U A37C G58A A60G G84C,≤ -4.2
8,C8G A22U G81C U82C C95G G140C C149A,≤ -4.2
9,C8G A23U A28G C35A A47U C93G A107G C132G U135G A142C,≤ -4.2
10,C8G A23U G50A G81U C85U C108A G141C,≤ -4.2
11,C8G A23U U45C G62U G68C C76A G128U U145C,≤ -4.2
12,C8G A24C C27G A28U A37C A40C G50C U90C C95G C132U,≤ -4.2
13,C8G A24C C32U C57U,≤ -4.2
14,C8G A24C G94C C131U,≤ -4.2
15,C8G A24C U61G,≤ -4.2
16,C8G A24G A28C C43A C105G A122C A147U,≤ -4.2
17,C8G A24G C76A U139A A142C U144C U148G,≤ -4.2
18,C8G A24G G83C C93A U127G G140A A147G,≤ -4.2
19,C8G A24U G25U G80A C96G C125A,≤ -4.2
20,C8G A26C A52U G65A A73G G80C G84A G124C,≤ -4.2
21,C8G A26C G74A C85G,≤ -4.2
22,C8G A26U C27G G84A U109G C116G,≤ -4.2
23,C8G A26U G42C G80A C85G C114A,≤ -4.2
24,C8G A28G G59C A73G A115C A120U G141C,≤ -4.2

row,Variant,polymerase ribozyme fitness (log ratio)
1,C8G A28G U61A U104A A110U A120G A138C,≤ -4.2
2,C8G A28U G83A G94A,≤ -4.2
3,C8G A29G G58U G94A G140A A147U,≤ -4.2
4,C8G A29U A41G U61A G68A U82C A89G C116U,≤ -4.2
5,C8G A30G A64C A110U,≤ -4.2
6,C8G A30U C43G C51U U55A A89U,≤ -4.2
7,C8G A30U U31G A40G A60G U77G C103U A138U,≤ -4.2
8,C8G A39G C87A A138G,≤ -4.2
9,C8G A39U C57G G58A G94A C108U,≤ -4.2
10,C8G A39U C96U G140A,≤ -4.2
11,C8G A40G U53G U55G C85G G133U,≤ -4.2
12,C8G A41C C43U C93U G143C,≤ -4.2
13,C8G A41G C54G G68A G84A U104A C108U,≤ -4.2
14,C8G A41G C79A G84A A89U,≤ -4.2
15,C8G A41U A49C G62A C79U C85U C96U C114G A115G,≤ -4.2
16,C8G A41U C96U A106U C123A G140C,≤ -4.2
17,C8G A47C C51A G94U A107G A142C C149G A150C,≤ -4.2
18,C8G A47C G62A A66G U90C C95A C99U U139G,≤ -4.2
19,C8G A49G U82G C87U G94A A120G,≤ -4.2
20,C8G A52C G84U G92A G140U,≤ -4.2
21,C8G A52G C72U U77A C108G,≤ -4.2
22,C8G A52U C95U U104G G140U,≤ -4.2
23,C8G A106G A119U,≤ -4.2
24,C8G A147C,≤ -4.2

row,Variant,polymerase ribozyme fitness (log ratio)
1,C8G A150C G152A,≤ -4.2
2,C8G C10A A47C G48U U55A G84A U109G,≤ -4.2
3,C8G C10A C54G C72G G74U G83U C87U G94U C103U,≤ -4.2
4,C8G C10A U56A C87A,≤ -4.2
5,C8G C10G A20U A29U C95U A107G,≤ -4.2
6,C8G C10G G59C A73G G88U,≤ -4.2
7,C8G C10G U31G C38U A49C G65U G71U G83U C105G,≤ -4.2
8,C8G C14G A20U A37U C99A C123G U134G,≤ -4.2
9,C8G C14G A22C C35G C87G U90C,≤ -4.2
10,C8G C14U A29U U61C G86C C105G A119C,≤ -4.2
11,C8G C18A A23U A73U C93A C118A,≤ -4.2
12,C8G C18G G84C C105A G126A,≤ -4.2
13,C8G C18U A28G A49G C87G,≤ -4.2
14,C8G C18U G50U C54U C79G G86A,≤ -4.2
15,C8G C18U G58A C79U C85U A98U G117A U146G,≤ -4.2
16,C8G C27A G80U C85U C103U A113U G133A C149G,≤ -4.2
17,C8G C27U A40C G42A G50A G58A G92A,≤ -4.2
18,C8G C27U U45A C93G C149G,≤ -4.2
19,C8G C32A A60C G80C C96U C99A,≤ -4.2
20,C8G C32A G42A C54U U56A C96G C118G,≤ -4.2
21,C8G C32G C57A C85U C118G A142U,≤ -4.2
22,C8G C32U G50C U55A C79G C96A,≤ -4.2
23,C8G C32U G80U,-4.14
24,C8G C35U A40U G68A G86U G141U G152U,≤ -4.2

row,Variant,polymerase ribozyme fitness (log ratio)
1,C8G C35U C57G U77A U82G G83C C93A A137G,≤ -4.2
2,C8G C35U C93G,≤ -4.2
3,C8G C35U G46C C72U G74U C96U A107G,≤ -4.2
4,C8G C35U G58A C76A G140C G143A,≤ -4.2
5,C8G C36G G62C G84U,≤ -4.2
6,C8G C38U A49C U90G C99A C103G C118U,≤ -4.2
7,C8G C43G A52G C93G C114G A121G,≤ -4.2
8,C8G C57A G84U C114U U148C A150C,≤ -4.2
9,C8G C63U G68A G92A A107U A142G,≤ -4.2
10,C8G C75G U78A C96U U130G,≤ -4.2
11,C8G C85G,≤ -4.2
12,C8G C87A,≤ -4.2
13,C8G C87G,≤ -4.2
14,C8G C87U,-3.36
15,C8G C93A,≤ -4.2
16,C8G C96U A121G G140C A150U,≤ -4.2
17,C8G C149G,≤ -4.2
18,C8G G11A A26G C57U G62C C72G C131G U145C,≤ -4.2
19,C8G G11C A30C C96U A138C,≤ -4.2
20,C8G G11C C14U G50C C95U C132A U135A A137C,≤ -4.2
21,C8G G25U A60G C85U U90C A142C U148C,≤ -4.2
22,C8G G34C C35G C43A G94C G117U U144A,≤ -4.2
23,C8G G42A C85G A98G A115G U135G,≤ -4.2
24,C8G G42C A47U C79G C87U A98U A138U,≤ -4.2

row,Variant,polymerase ribozyme fitness (log ratio)
1,C8G G48A A52C U53A C54U G67U G81U A91C C118U,≤ -4.2
2,C8G G50A A66C G84A,≤ -4.2
3,C8G G50A C54G U56A G74C C87A C116A G141C,≤ -4.2
4,C8G G50C G59U G86A A110G,≤ -4.2
5,C8G G50C U55G C87A G88U U101C A115U G128A,≤ -4.2
6,C8G G50C U61A C72A G84A C93U A98U U104C A147U,≤ -4.2
7,C8G G58A C85G,≤ -4.2
8,C8G G62C G100A A122C A137U,≤ -4.2
9,C8G G67A G94A C95U A106G,≤ -4.2
10,C8G G68A G83C G88A A91U,≤ -4.2
11,C8G G70C C93U C99U U148G,≤ -4.2
12,C8G G83A U101C,≤ -4.2
13,C8G G83C A107C G143A A147U,≤ -4.2
14,C8G G84A G128U,≤ -4.2
15,C8G G88C,≤ -4.2
16,C8G G88U C93U,≤ -4.2
17,C8G U9A C10A C35U G58A C85A U111G,≤ -4.2
18,C8G U9C A17G G81A G84U C103A U145A,≤ -4.2
19,C8G U9C C76A A91C C108U,≤ -4.2
20,C8G U9C G94U A120G C149U,≤ -4.2
21,C8G U9G A22U A39U U56G C103A A119C A121U A137C,≤ -4.2
22,C8G U9G A26G U31G U44A U61G G94C,≤ -4.2
23,C8G U9G U33C A47U C96U,≤ -4.2
24,C8G U13A A22G A26U A37U G68C G136C U148C A150G,≤ -4.2

row,Variant,polymerase ribozyme fitness (log ratio)
1,C8G U13G A39C G46A G62A G74U U77G C123A,≤ -4.2
2,C8G U13G A40C U77A G94A A97C C99U A113G G117U U139G U144G,≤ -4.2
3,C8G U15A A29C A60G G83A G100A A121G G141A,≤ -4.2
4,C8G U31A A37C A49U U77C,≤ -4.2
5,C8G U31A A47G U55A C57U G81A U102G C103U C114A U134C,≤ -4.2
6,C8G U31A G59U C118U,≤ -4.2
7,C8G U31G A39U C43G C79U C85G C103A G126U U139A,≤ -4.2
8,C8G U44G C57A C76A C96U G100C A106C,≤ -4.2
9,C8G U45A C85G,≤ -4.2
10,C8G U45A U55G G88U G126A,≤ -4.2
11,C8G U53A C69A G140C,≤ -4.2
12,C8G U53A G59C G92U C131A,≤ -4.2
13,C8G U53G C69U C85A G86A G128A,≤ -4.2
14,C8G U55A C116U,≤ -4.2
15,C8G U55G G65A G68A C99U,≤ -4.2
16,C8G U56G C87G A91G C93G A142U,≤ -4.2
17,C8G U56G G80C C85U C96G U109C A147G A150U,≤ -4.2
18,C8G U61G C63U C85G,≤ -4.2
19,C8G U82A C85U C116U,≤ -4.2
20,C8G U82G G84U C85U A107C,≤ -4.2
21,C8U A12C A24C A30C C38G C76G G94A C131A A137C,≤ -4.2
22,C8U A12G A24U G50U C63A G88A,≤ -4.2
23,C8U A12G U13G U77C U82A A89G A91G U102A,≤ -4.2
